# In the supplement of paper PMC12217912:
# The other results are listed elsewhere or left out. The full chains were built here from the parent and the listed change. Inactive controls read about 0.05.
# B1: TEV protease; numbered along this chain (parent)
# chain: MGESLFKGPRDYNPISSSICHLTNESDGHTTSLYGIGFGPFIITNKHLFRRNNGTLVVQSLHGVFKVKDTTTLQQHLVDGRDMIIIRMPKDFPPFPQKLKFREPQREERICLVTTNFQTKSMSSMVSDTSCTFPSGDGIFWKHWIQTKDGQCGSPLVSTRDGFIVGIHSASNFTNTNNYFTSVPKNFMELLTNQEAQQWVSGWRLNADSVLWGGHKVFMVKPEEPFQPVKEATQL
# Variants of: B1
# Assay: raw area under fraction-flipped curve 0-4 h after induction (AUC4h, not background-subtracted), DNA-recorder readout of cleavage of the substrate (dimensionless); higher = more cleavage of the substrate by the protease variant
# Conditions: temperature: 34 °C; time window: 0-4 h after rhamnose induction
# Description: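 In vivo DNA recorder in E. coli TOP10(DE3) ΔrhaA at 34 °C. Each TEVp single-site mutant (parent TEVp 0) is paired with a single-site variant of the 7-mer TEVs (canonical ENLYFQ|S). The substrate sits between flexible linkers in a Bxb1-sfGFP-TEVs-SsrA fusion, so cleavage stabilises Bxb1 and speeds flipping of a recombination array, read by NGS. The value is the raw area under the fraction-flipped curve over 0-4 h after rhamnose induction (AUC4h), with ≥20 reads per time point. It is not background-subtracted; inactive controls average about 0.047.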
# 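Also: Bxb1 expression induced with 0.2% (w/v) L-rhamnose at OD600 near 0.5, cultures sampled hourly, flipped fraction per protease–substrate barcode pair counted by paired-end Illumina sequencing.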
Variant,area with substrate ENLCFQS,area with substrate ENLDFQS,area with substrate ENLNFQS,area with substrate ENLSFQS,area with substrate ENLIFQS,area with substrate ENLKFQS,area with substrate ENLLFQS,area with substrate ENLPFQS,area with substrate ENLQFQS,area with substrate ENLRFQS
N172M,0.0706,0.0986,0.0604,0.0396,–,–,–,–,–,–
T174C,0.0528,0.0495,–,–,0.0868,0.0608,0.0855,0.0567,0.0756,0.0774
N175S,0.0691,–,0.0604,–,–,–,–,–,–,0.0752
T176Q,0.0623,–,0.0461,0.0274,–,–,0.0566,–,–,–
Y179D,0.0852,–,0.083,0.0729,–,0.0624,0.0506,–,–,–
F180H,0.0584,–,0.0537,0.0552,–,0.0948,–,–,–,–
F180S,0.0628,–,–,–,0.0686,–,–,0.0492,–,–
S182F,0.0473,0.048,0.0431,0.0767,–,0.076,0.0554,0.0366,0.0452,0.0526
S182V,0.0673,–,–,–,–,0.08,–,0.058,–,–
K185N,0.0922,0.0818,0.0219,0.0586,–,0.0829,–,–,0.0534,0.0853
K185V,0.0717,0.0705,–,0.0664,0.11,0.0833,0.0762,0.0506,–,0.0614
E189L,0.0673,0.05,0.0549,0.0511,0.0766,0.0731,0.0631,0.0584,0.0714,0.0647
L191Q,0.0291,0.0584,0.0687,0.0669,–,0.0569,–,0.0628,–,0.0285
E195L,0.0881,0.0505,–,–,0.0817,0.043,–,–,–,–
E195P,0.0899,–,–,–,–,–,–,0.0625,–,–
A196V,0.0395,–,0.0627,–,0.081,–,0.0869,–,0.0545,–
Q198P,0.0576,0.0574,0.0696,–,0.0698,–,–,–,–,–
W199Q,0.0644,–,–,0.0824,–,–,–,–,–,0.0254
S201N,0.0607,0.061,0.0633,0.0623,–,0.0631,0.0557,0.0574,0.0937,0.0806
R204D,0.0629,0.056,0.0576,0.0589,–,0.0671,0.0605,–,–,–
N206C,0.0774,0.0745,0.0646,0.0524,–,0.071,–,0.0564,0.0614,0.0684
S209K,0.059,0.0711,–,–,–,0.0442,–,0.0546,–,–

Variant,area with substrate ENLCFQS,area with substrate ENLDFQS,area with substrate ENLNFQS,area with substrate ENLSFQS,area with substrate ENLIFQS,area with substrate ENLKFQS,area with substrate ENLLFQS,area with substrate ENLPFQS,area with substrate ENLQFQS,area with substrate ENLRFQS
H215K,0.0655,0.0602,0.0715,0.0731,–,0.065,0.068,0.0663,–,–
V217L,0.0744,–,0.0719,–,–,–,–,0.0386,0.075,–
F218I,0.044,0.0695,–,0.0466,0.0686,0.0685,–,0.0504,–,–
P222T,0.0883,–,–,0.0656,–,–,–,0.0687,0.0666,0.117
E223A,0.041,–,–,–,–,–,–,–,0.0625,–
E223D,0.0625,–,–,0.0582,–,–,–,–,–,–
Q227D,0.062,–,–,–,0.0761,0.0693,0.0712,0.0593,–,0.0781
P228S,0.0821,0.0573,–,0.0693,–,0.079,–,–,–,0.0734
P228Y,0.0795,0.0374,–,0.051,–,–,–,–,0.075,0.077
V229D,0.105,0.0551,–,–,0.0802,0.107,–,–,–,–
V229R,0.0704,–,0.0607,0.0638,–,0.097,0.0716,0.0565,0.0692,–
T233P,0.0807,–,–,–,–,–,–,0.0618,–,0.0616
L235P,0.0534,0.0646,0.0713,–,–,0.0754,–,–,–,0.0992
L235T,0.082,0.0784,0.0692,0.0626,–,0.0643,0.0511,0.0144,0.0631,0.0875
G2A,–,0.0531,0.0661,0.0516,–,0.0848,0.073,–,–,–
G2I,–,0.063,–,0.0381,–,0.108,–,–,–,–
G2T,–,0.06,0.0745,–,–,0.0816,–,–,–,–
E3D,–,0.0747,0.0723,–,–,–,–,0.0492,–,–
F6N,–,0.054,–,–,–,0.0581,–,–,–,0.0564
D27E,–,0.0767,–,–,–,0.055,0.0825,0.122,–,0.0862
G28Y,–,0.0482,–,0.0664,0.0578,0.0691,–,–,0.0707,0.0668

# Same assay, conditions: temperature: 34 °C; time window: 0-4 h after rhamnose induction
Variant,area with substrate ENLFFQS,area with substrate ENLWFQS,area with substrate ENLGFQS,area with substrate ENLVFQS,area with substrate ENLEFQS,area with substrate ENLMFQS,area with substrate ENLHFQS,area with substrate ENLTFQS
N175S,0.0784,–,–,–,–,–,–,–
T176Q,–,0.069,–,–,–,–,–,–
Y179D,0.0608,–,0.067,–,–,–,–,–
F180H,–,–,–,0.0869,–,–,–,–
F180S,0.0841,–,0.0591,0.0573,0.0589,0.081,–,–
S182F,0.0582,0.0757,–,–,0.0585,–,–,–
S182V,–,–,–,–,0.063,–,–,–
K185N,0.0715,0.0445,–,–,0.0651,0.0872,0.0731,–
K185V,0.0823,–,–,–,–,–,–,–
E189L,0.0845,–,–,0.0722,0.0549,–,0.0705,–
L191Q,0.0611,–,–,–,0.0559,–,–,–
E195L,0.0783,0.0485,–,–,0.0614,–,–,–
A196V,0.0711,0.0645,–,0.112,–,–,0.0616,–
Q198P,–,–,–,–,–,–,0.0531,–
W199Q,–,–,–,0.0673,0.0782,–,–,0.0514
S201N,0.0745,0.0708,–,0.0783,–,0.0926,0.0615,0.0754
R204D,0.0702,0.0661,0.0669,–,–,0.0792,0.0625,–
N206C,0.0935,–,–,–,0.0624,0.0631,–,–
S209K,–,–,–,–,0.0745,0.0588,–,–
H215K,0.0645,0.0619,0.0681,0.0541,–,0.0482,0.0682,–

Variant,area with substrate ENLFFQS,area with substrate ENLWFQS,area with substrate ENLGFQS,area with substrate ENLVFQS,area with substrate ENLEFQS,area with substrate ENLMFQS,area with substrate ENLHFQS,area with substrate ENLTFQS
V217L,–,–,–,–,0.0597,–,–,–
F218I,0.0738,0.0372,–,–,0.0308,–,–,–
P222T,0.0936,0.0569,–,–,0.0785,–,0.0541,–
E223A,0.0923,–,–,–,–,–,–,–
Q227D,0.085,–,–,0.0729,–,–,0.0723,–
P228S,–,–,–,0.112,0.0603,–,0.0531,–
P228Y,0.0853,–,–,–,–,–,–,–
V229D,0.121,0.0869,0.0323,–,–,–,0.0611,–
V229R,0.0919,–,–,–,–,–,0.0674,–
T233P,–,0.0731,–,–,–,–,0.0451,–
L235P,0.0931,–,–,–,–,–,–,0.0781
L235T,0.106,0.0655,–,0.0931,0.0747,–,0.0544,–
G2A,0.0962,0.0978,0.0788,0.111,–,–,0.0628,–
G2I,0.133,–,–,–,–,–,0.081,–
G2T,–,–,–,–,–,–,0.0848,–
E3D,–,0.0709,–,–,–,0.106,0.079,–
F6N,0.0697,–,0.0536,–,–,–,0.0771,–
D27E,–,–,–,–,–,–,0.066,0.0712
G28Y,0.0726,–,–,–,0.0567,–,–,–
